Laboratory results from the supplement of paper PMC11741623.
Some of the results follow. Interaction screen of human proteins with wild-type SARS-CoV-2 proteins by split-DHFR complementation in yeast, 1 µg/mL methotrexate. Value = fitness of the pair (three or more lineages) minus that of the viral protein without a human partner, on a scale set by negative (0) and fused positive (1) controls, mean of up to three cultures; higher = more likely to interact. Active = false discovery rate below 0.05 (one-sided t-test) in at least one culture. Nearly all pairs are not hits, and differences among them are mostly noise (correlation between cultures about 0.3); most hits were seen in one culture only. Human sequences are the Swiss-Prot entries looked up by gene name; the clone may be another isoform. NSP2 values were corrected by the authors for a growth advantage. Listed are human proteins with a hit and a random twelfth of the others.

Experiments:
Test in all cases: yeast fitness gain over the viral ORF with no human partner (scaled fitness); higher = more likely to interact
SARS-CoV-2 M = target: SARS-CoV-2 M
Description: (§1)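 Split mouse DHFR complementation in pooled diploid yeast: human ORFeome clones carry one fragment and viral ORFs the other; barcoded lineages compete in 1 µg/mL methotrexate and fitness is read by barcode sequencing in up to three cultures.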

SARS-CoV-2 NSP1 = target: SARS-CoV-2 NSP1
Description: as §1

SARS-CoV-2 NSP10 = target: SARS-CoV-2 NSP10
Description: as §1

SARS-CoV-2 NSP12 = target: SARS-CoV-2 NSP12
Description: as §1

SARS-CoV-2 NSP13 = target: SARS-CoV-2 NSP13
Description: as §1

SARS-CoV-2 NSP15 = target: SARS-CoV-2 NSP15
Description: as §1

SARS-CoV-2 NSP16 = target: SARS-CoV-2 NSP16
Description: as §1

SARS-CoV-2 NSP2 = target: SARS-CoV-2 NSP2
Description: as §1

SARS-CoV-2 NSP4 = target: SARS-CoV-2 NSP4
Description: as §1

SARS-CoV-2 NSP5 = target: SARS-CoV-2 NSP5
Description: as §1

SARS-CoV-2 NSP6 = target: SARS-CoV-2 NSP6
Description: as §1

SARS-CoV-2 NSP7 = target: SARS-CoV-2 NSP7
Description: as §1

SARS-CoV-2 NSP8 = target: SARS-CoV-2 NSP8
Description: as §1

SARS-CoV-2 NSP9 = target: SARS-CoV-2 NSP9
Description: as §1

SARS-CoV-2 ORF10 = target: SARS-CoV-2 ORF10
Description: as §1

SARS-CoV-2 ORF3B = target: SARS-CoV-2 ORF3B
Description: as §1

SARS-CoV-2 ORF6 = target: SARS-CoV-2 ORF6
Description: as §1

SARS-CoV-2 ORF7A = target: SARS-CoV-2 ORF7A
Description: as §1

SARS-CoV-2 ORF7B = target: SARS-CoV-2 ORF7B
Description: as §1

SARS-CoV-2 ORF8 = target: SARS-CoV-2 ORF8
Description: as §1

SARS-CoV-2 ORF9B = target: SARS-CoV-2 ORF9B
Description: as §1

[1] = target: SARS-CoV-2 ORF9Bwu (the 73-codon ORF)
Description: as §1

SARS-CoV-2 S = target: SARS-CoV-2 S
Description: as §1

SARS-CoV-2 N = target: SARS-CoV-2 N
Description: as §1

SARS-CoV-2 NSP14 = target: SARS-CoV-2 NSP14
Description: as §1

SARS-CoV-2 ORF3A = target: SARS-CoV-2 ORF3A
Description: as §1

Measured: yeast fitness gain

B1: GPX1, P07203 (protein)
chain: MCAARLAAAAAAAQSVYAFSARPLAGGEPVSLGSLRGKVLLIENVASLUGTTVRDYTQMNELQRRLGPRGLVVLGFPCNQFGHQENAKNEEILNSLKYVRPGGGFEPNFMLFEKCEVNGAGAHPLFAFLREALPAPSDDATALMTDPKLITWSPVCRNDVAWNFEKFLVGPDGVPLRRYSRRFQTIDIEPDIEALLSQGPSCA
inactive: SARS-CoV-2 M 0.0477 | SARS-CoV-2 NSP1 = 0.0774 | SARS-CoV-2 NSP10 = -0.0272 | SARS-CoV-2 NSP12 = -0.0255 | SARS-CoV-2 NSP13 = -0.00571 | SARS-CoV-2 NSP15 = -0.00233 | SARS-CoV-2 NSP16 = 0.0941 | SARS-CoV-2 NSP2 = -0.07 | SARS-CoV-2 NSP4 = 0.107 | SARS-CoV-2 NSP5 = 0.0155 | SARS-CoV-2 NSP6 = 0.0217 | SARS-CoV-2 NSP7 = 0.0539 | SARS-CoV-2 NSP8 = 0.00965 | SARS-CoV-2 NSP9 = -0.0582 | SARS-CoV-2 ORF10 = 0.0492 | SARS-CoV-2 ORF3B -0.0194 | SARS-CoV-2 ORF6 = -0.115 | SARS-CoV-2 ORF7A 0.0584 | SARS-CoV-2 ORF7B -0.0894 | SARS-CoV-2 ORF8 = 0.0825 | SARS-CoV-2 ORF9B -0.0175 | [1] 0.147 | SARS-CoV-2 S -0.0557

B2: C3orf35, Q8IVJ8 (protein)
chain: MKTMATRKRCKLSRTGPEFENVIKRLLCARTFHTRIGGDLTHGIINRGRRANAEQMGLQGSAQHFNIFPLDLWTQGKKTEVQKREGTDSIPAAGRSGTANQPSIAPHRCLFSRGITALDGLKRGRGCNGAAHLVRGDAWKTKLGEPWVSIALALAGPGAILILELSWFLG
inactive: SARS-CoV-2 M 0.0186 | SARS-CoV-2 NSP1 = -0.136 | SARS-CoV-2 NSP10 = -0.00578 | SARS-CoV-2 NSP12 = 0.0333 | SARS-CoV-2 NSP13 = -0.117 | SARS-CoV-2 NSP15 = -0.0499 | SARS-CoV-2 NSP2 = -0.12 | SARS-CoV-2 NSP5 = -0.16 | SARS-CoV-2 NSP6 = -0.00239 | SARS-CoV-2 NSP8 = -0.0123 | SARS-CoV-2 ORF10 = 0.0446 | SARS-CoV-2 ORF3B -0.00587 | SARS-CoV-2 ORF6 = 0.0148 | SARS-CoV-2 ORF7A -0.0555 | SARS-CoV-2 ORF7B -0.0722 | SARS-CoV-2 ORF8 = -0.0775 | SARS-CoV-2 ORF9B -0.0228 | [1] 0.0177 | SARS-CoV-2 S 0.0436

B3: FAM216B, Q8N7L0 (protein)
chain: MGQNWKRQQKLWNVPQLPFIRVPPSIYDTSLLKALNQGQQRYFYSIMRIYNSRPQWEALQTRYIHSLQHQQLLGYITQREALSYALVLRDSTKRASAKVAPQRTIPRKTSAMTRRCPSVLPVSVVLPRAQSKRRQVLRN
inactive: SARS-CoV-2 M 0.0444 | SARS-CoV-2 N 0.0322 | SARS-CoV-2 NSP10 = 0.00816 | SARS-CoV-2 NSP12 = -0.0417 | SARS-CoV-2 NSP13 = -0.00176 | SARS-CoV-2 NSP14 = -0.116 | SARS-CoV-2 NSP15 = -0.388 | SARS-CoV-2 NSP2 = -0.26 | SARS-CoV-2 NSP4 = 0.0935 | SARS-CoV-2 NSP5 = 0.00561 | SARS-CoV-2 NSP6 = 0.0181 | SARS-CoV-2 NSP7 = -0.343 | SARS-CoV-2 NSP9 = 0.0267 | SARS-CoV-2 ORF10 = 0.0341 | SARS-CoV-2 ORF3A 0.0873 | SARS-CoV-2 ORF3B -0.0141 | SARS-CoV-2 ORF6 = -0.125 | SARS-CoV-2 ORF7A -0.0336 | SARS-CoV-2 ORF7B -0.12 | SARS-CoV-2 ORF8 = -0.184 | SARS-CoV-2 ORF9B 0.0784 | [1] -0.135 | SARS-CoV-2 S -0.143

B4: HSD17B3, P37058 (protein)
chain: MGDVLEQFFILTGLLVCLACLAKCVRFSRCVLLNYWKVLPKSFLRSMGQWAVITGAGDGIGKAYSFELAKRGLNVVLISRTLEKLEAIATEIERTTGRSVKIIQADFTKDDIYEHIKEKLAGLEIGILVNNVGMLPNLLPSHFLNAPDEIQSLIHCNITSVVKMTQLILKHMESRQKGLILNISSGIALFPWPLYSMYSASKAFVCAFSKALQEEYKAKEVIIQVLTPYAVSTAMTKYLNTNVITKTADEFVKESLNYVTIGGETCGCLAHEILAGFLSLIPAWAFYSGAFQRLLLTHYVAYLKLNTKVR
inactive: SARS-CoV-2 M 0.0136 | SARS-CoV-2 N 0.0107 | SARS-CoV-2 NSP1 = -0.0337 | SARS-CoV-2 NSP10 = -0.0387 | SARS-CoV-2 NSP12 = 0.0968 | SARS-CoV-2 NSP13 = -0.00599 | SARS-CoV-2 NSP15 = 0.0616 | SARS-CoV-2 NSP16 = 0.0292 | SARS-CoV-2 NSP2 = -0.0586 | SARS-CoV-2 NSP4 = -0.269 | SARS-CoV-2 NSP5 = 0.0388 | SARS-CoV-2 NSP6 = 0.0498 | SARS-CoV-2 NSP7 = 0.0153 | SARS-CoV-2 NSP8 = 0.03 | SARS-CoV-2 NSP9 = -0.0271 | SARS-CoV-2 ORF10 = -0.0397 | SARS-CoV-2 ORF3A 0.036 | SARS-CoV-2 ORF3B 0.047 | SARS-CoV-2 ORF6 = 0.0141 | SARS-CoV-2 ORF7A 0.0321 | SARS-CoV-2 ORF7B -0.000585 | SARS-CoV-2 ORF8 = -0.0435 | SARS-CoV-2 ORF9B 0.0357 | [1] 0.051 | SARS-CoV-2 S -0.0102
